PMC4336329 (PLoS ONE, 2015)
About 2,200 (0.71%) of roughly 310,000 compounds showed an effect of 50% or more. Effects have a minus sign here. Some of the results follow.

target: human ether-à-go-go-related gene (hERG) potassium channel (human, UniProt Q12809); assay: primary screen, population patch clamp on CHO cells stably expressing hERG
Sequence (Q12809 whole entry, looked up): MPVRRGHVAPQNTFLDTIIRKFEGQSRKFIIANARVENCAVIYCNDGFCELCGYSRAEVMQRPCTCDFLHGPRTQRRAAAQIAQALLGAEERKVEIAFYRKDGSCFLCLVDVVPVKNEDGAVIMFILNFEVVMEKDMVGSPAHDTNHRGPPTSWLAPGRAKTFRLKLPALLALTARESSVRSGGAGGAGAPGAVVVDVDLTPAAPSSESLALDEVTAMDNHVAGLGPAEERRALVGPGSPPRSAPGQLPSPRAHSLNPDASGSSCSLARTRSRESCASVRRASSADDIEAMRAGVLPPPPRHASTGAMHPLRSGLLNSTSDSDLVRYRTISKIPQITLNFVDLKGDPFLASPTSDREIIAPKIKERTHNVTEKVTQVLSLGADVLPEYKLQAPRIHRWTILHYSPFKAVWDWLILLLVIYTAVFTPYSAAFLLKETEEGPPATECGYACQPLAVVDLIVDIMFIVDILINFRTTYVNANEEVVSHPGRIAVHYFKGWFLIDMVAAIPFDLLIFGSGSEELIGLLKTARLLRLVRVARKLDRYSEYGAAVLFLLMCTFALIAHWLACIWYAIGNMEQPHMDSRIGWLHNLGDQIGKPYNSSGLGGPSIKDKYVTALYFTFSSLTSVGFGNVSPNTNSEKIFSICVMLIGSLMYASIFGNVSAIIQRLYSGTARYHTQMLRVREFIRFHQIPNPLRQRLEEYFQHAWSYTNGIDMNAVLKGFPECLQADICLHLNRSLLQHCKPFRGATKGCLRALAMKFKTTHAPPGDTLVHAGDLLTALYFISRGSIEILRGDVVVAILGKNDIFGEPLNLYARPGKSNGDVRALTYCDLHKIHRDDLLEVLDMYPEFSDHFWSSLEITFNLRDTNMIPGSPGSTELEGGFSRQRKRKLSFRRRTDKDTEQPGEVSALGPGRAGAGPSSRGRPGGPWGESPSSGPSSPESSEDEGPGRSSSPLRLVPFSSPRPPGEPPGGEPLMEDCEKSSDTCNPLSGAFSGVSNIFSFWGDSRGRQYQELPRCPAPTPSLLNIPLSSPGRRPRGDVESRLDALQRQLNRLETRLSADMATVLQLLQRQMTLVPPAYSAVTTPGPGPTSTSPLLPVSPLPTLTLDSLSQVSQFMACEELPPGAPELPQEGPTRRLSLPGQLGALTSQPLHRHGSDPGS

Structure (SMILES) | hERG current change (%, negative = inhibition) at 1uM [%]
Cc1cccc(-n2cnc3cc(C(=O)N4CCc5ccccc54)ccc32)c1 | -6.54
O=C(O)C(=O)O.O=C(c1cccc(F)c1)N1CCC(N2CCCCCC2)CC1 | -11.6
COc1ccc(S(=O)(=O)N2CCN(C(=O)c3cc(-c4ccc(Br)cc4)n[nH]3)CC2)cc1OC | -3.86
COc1ccc(/C(N)=N/OC(=O)c2ccc(OC)c([N+](=O)[O-])c2)cc1OC | -22
CC(C)N1CN=C(Nc2nc3ccccc3o2)NC1 | 26.5
COc1cc(/C=N/NC(=O)Cc2c[nH]c3ccccc23)cc(OC)c1OC | -0.919
O=C(COc1ccc(-c2nnco2)cc1)Nc1ccc(C(F)(F)F)cc1 | 24.1
Cc1ccccc1C(=O)NC(C(=O)Nc1nc2c(s1)CCCC2)C(C)C (centres unmarked) | 3.13
CC(C)(C)c1nc(CN2CCCCC2)cc(CN2CCCCC2)c1O | 4.44
COc1ccc(/C=C/C(=O)Nc2nc(C)cc(C)n2)cc1OC | 13.4
CC1CN(S(=O)(=O)c2cccc(C(=O)N(CCc3ccccc3)Cc3ccccc3)c2)CC(C)O1 (centres unmarked) | 3.87
CCOC(=O)C1CCCN(C(=O)c2cccc([N+](=O)[O-])c2C)C1 (centres unmarked) | 4.21
CC(C)(C)c1ccc(OCCCC(=O)NNC(=O)c2ccccc2O)cc1 | 15.6
CCOC(=O)c1ccc(CNC(=O)CSc2nnnn2-c2ccc(Cl)cc2)o1 | 0.329
COC(=O)C(C(C)=O)C1=C/C(=N\S(=O)(=O)c2ccc(C)cc2)c2ccccc2C1=O (centres unmarked) | 2.22
N#Cc1nc(-c2ccc(Cl)cc2)oc1NCc1cccc2c1OCO2 | 16
O=C(/C=C/c1ccc(Cl)cc1Cl)c1cccnc1 | 9.99
O=C(NCCCN1CCc2ccccc2C1)Nc1ccc(Cl)cc1 | -44.5
COc1ccc(N(CC(=O)NC2CCCC2)C(=O)Cn2nnc(-c3ccc(F)cc3)n2)cc1OC | 14.2
N/C(COc1cc(Cl)cc(Cl)c1)=N\O | 8.18
O=C(Nc1ccccn1)c1ccc(Cl)c(S(=O)(=O)N2CCOCC2)c1 | 7.92
CC(CCc1ccccc1)NS(=O)(=O)c1ccccc1F (centres unmarked) | 0.0633
COc1ccc(NC(=O)CN(C)C(=O)c2ccc(NS(=O)(=O)c3cccc([N+](=O)[O-])c3)cc2)cc1 | 4.19
